# In all, about 33,000 sequences were measured (“E-score (-0.5 to 0.5)”: median about -0.021, highest 2% from about 0.32 on). The list shows a part of the results.
# Target: T1, Zap1 (UniProt P47043)
# T1 sequence: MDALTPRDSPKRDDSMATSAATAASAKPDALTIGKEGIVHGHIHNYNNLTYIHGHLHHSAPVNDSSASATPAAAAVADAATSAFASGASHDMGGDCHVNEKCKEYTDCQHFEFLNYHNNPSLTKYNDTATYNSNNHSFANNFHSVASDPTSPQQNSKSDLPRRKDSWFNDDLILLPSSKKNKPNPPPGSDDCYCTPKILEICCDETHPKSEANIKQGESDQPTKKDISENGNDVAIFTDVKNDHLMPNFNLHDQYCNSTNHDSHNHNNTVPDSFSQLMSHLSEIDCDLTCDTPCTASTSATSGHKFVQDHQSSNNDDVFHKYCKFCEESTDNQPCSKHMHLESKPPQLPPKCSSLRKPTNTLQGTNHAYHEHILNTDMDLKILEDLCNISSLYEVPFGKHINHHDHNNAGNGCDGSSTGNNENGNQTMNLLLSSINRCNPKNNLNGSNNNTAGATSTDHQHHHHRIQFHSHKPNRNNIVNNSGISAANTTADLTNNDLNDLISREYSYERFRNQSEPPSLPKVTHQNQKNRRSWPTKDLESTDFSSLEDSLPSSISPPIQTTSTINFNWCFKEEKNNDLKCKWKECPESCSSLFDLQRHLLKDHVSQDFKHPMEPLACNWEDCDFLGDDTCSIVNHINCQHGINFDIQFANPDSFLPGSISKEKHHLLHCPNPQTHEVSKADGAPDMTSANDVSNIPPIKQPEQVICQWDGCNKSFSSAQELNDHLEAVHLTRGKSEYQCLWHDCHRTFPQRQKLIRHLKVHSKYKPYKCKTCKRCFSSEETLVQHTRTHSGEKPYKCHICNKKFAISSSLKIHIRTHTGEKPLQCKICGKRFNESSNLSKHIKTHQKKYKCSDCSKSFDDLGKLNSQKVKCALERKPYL
# Experiment: PBM E-score (8-mer binding enrichment) (E-score (-0.5 to 0.5)); higher = stronger / more preferred TF binding; most listed sequences are background and not binding sites
# Conditions: protein concentration: 200 nM; construct: GST-full length
# In short: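 For each ungapped eight-base word taken together with its reverse complement, the Universal PBM Analysis Suite assigned an E-score. Binding data came from GST-tagged yeast transcription factors, applied at about 100-200 nM, on universal all-10-mer Agilent arrays made double-stranded by primer extension. Fluorescent anti-GST marked bound protein, and scans were normalised with masliner.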
row,Sequence,PBM E-score
1,CTACCCTC,0.35
2,GCACCCAA,0.103
3,CTAAGCAG,-0.0743
4,ATGGGTTG,0.234
5,TCAATCCA,0.0709
6,GCGATCAA,0.00263
7,GTCATGTA,0.021
8,ATGAGATA,0.167
9,TCCGAGGA,-0.279
10,CCCGTCTC,-0.236
11,CCGGTCCG,-0.00084
12,GGACTTAC,-0.127
13,GAATGGCC,0.188
14,CTCCGGTC,-0.0553
15,CATCGAGC,-0.203
16,CAGTCGTC,-0.106
17,CCTCCTGA,0.0897
18,CATTCAAG,0.116
19,CTACTTAA,-0.137
20,GAGTATGC,-0.0378
21,CCTCCGTA,-0.123
22,AGTCCTAG,-0.122
23,GGCTCACA,-0.157
24,GACACGTA,-0.148
25,CATGTCGG,-0.0655

row,Sequence,PBM E-score
1,CAGCGTAG,-0.16
2,AAGGACCG,-0.077
3,AGCGTCTC,-0.211
4,ACCGTGAC,0.173
5,ACTTGACC,0.1
6,TCCATACA,-0.014
7,AAAAATGG,0.192
8,CGTGGTAC,0.103
9,TATTTCCA,0.0559
10,AGAAGACA,-0.291
11,CGGAGCCC,-0.303
12,CTATAGCA,0.0514
13,AGGAGAGC,-0.278
14,AAGCGTTG,-0.207
15,ATACAGTA,0.0214
16,CAGCCGCG,-0.108
17,CCGGGCAG,-0.0902
18,CGCGACGA,0.0002
19,CAAGCTAG,-0.22
20,CAAACACA,0.136
21,AGAGTAGA,0.107
22,AGGTCGCC,0.0624
23,CACGTTCC,-0.136
24,CATCTAGC,-0.194
25,ACCGGTTC,-0.0449

row,Sequence,PBM E-score
1,ATGAAGCG,-0.212
2,AGGCAAGA,0.0461
3,AAACTTAT,0.19
4,CTTTATTA,0.159
5,CATCCGCA,-0.0365
6,CGACGACG,-0.229
7,TGGGTCAA,0.0925
8,GAGAGTTA,0.0524
9,CGAAAATA,0.16
10,ACTCGCGC,0.0479
11,ATCTCTTC,-0.12
12,AGATCAGC,-0.147
13,CCATTACC,0.298
14,GATTTTGA,0.203
15,CACGGCCG,0.0275
16,AATTTATG,0.201
17,AGGACGAC,-0.162
18,CATACGCA,-0.0546
19,GTTGATGA,0.0344
20,CATTCTCA,0.0502
21,ACCTCACC,0.052
22,TATATAAA,0.22
23,ACTCATGA,-0.0211
24,CCAATGGG,-0.00785
25,TATAATAA,0.256

row,Sequence,PBM E-score
1,AGACCTTA,0.229
2,AGATTACG,0.0995
3,TTTCCAAA,0.114
4,ACATGCCC,-0.248
5,AGGTCTAA,0.145
6,ACCACGGT,0.121
7,CCCGTAGA,-0.246
8,ACAATCGC,0.0402
9,AAATATGT,0.0661
10,CAAGTCCG,-0.188
11,AAAATACT,-0.0706
12,ATATTCAG,0.0444
13,ATGAGTCA,-0.0894
14,CCCACCAG,0.0873
15,GTCAGCGA,-0.0372
16,ACGGGACG,-0.114
17,AATCAGGG,0.00907
18,ATGAATTG,0.0552
19,GCACCCCA,0.276
20,TGTGAACA,-0.0338
21,CGGGTCAA,0.163
22,GTGTTGGA,-0.0142
23,CACCTTAA,0.207
24,TACGTAAA,0.0639
25,CATCGTAC,0.02

row,Sequence,PBM E-score
1,GTCGACAC,0.126
2,AATTATGG,0.0545
3,CCAGCCCC,-0.157
4,TGGTCAAA,0.265
5,CCGTTAGG,0.182
6,AGGCCAAT,-0.116
7,AGCTAACA,-0.113
8,ATCCCTAC,-0.023
9,GAGAGGGA,-0.285
10,CAATAGAC,-0.1
11,ACATCCCA,-0.0423
12,CGACCCTC,0.153
13,GGCTTTGA,0.00037
14,AAGGCGTG,-0.19
15,AACTAAGG,0.017
16,GACGCCCA,0.029
17,AGGCGAAC,-0.116
18,CTAATAAA,0.119
19,GAGAAGCA,-0.207
20,GCTAAGTA,-0.0328
21,CCTTTGCA,0.0267
22,AGCTGACA,0.00773
23,AGCGGCCT,0.1
24,CCGTATTC,0.0688
25,ACGCTCGA,-0.134

row,Sequence,PBM E-score
1,AGTTGTAG,0.0534
2,GCTGCGCA,-0.346
3,ACAAGGGA,-0.00241
4,AGTAAGAG,-0.0194
5,AACATAGG,0.113
6,CACACCGC,-0.0381
7,TAAACTGA,0.118
8,GCGTCACA,-0.0785
9,CCTCCAAA,0.0685
10,ACGTCGGC,-0.347
11,ACCGCACA,0.0798
12,ACCTATTC,0.0722
13,AAAGGCTA,0.0247
14,GATTCTAA,-0.0858
15,GTCATTGA,0.0457
16,AAATCGGA,0.00386
17,AAGTCCGG,-0.0828
18,ATCTATCG,-0.167
19,ACGGAGCT,-0.178
20,AAGCCCCA,-0.198
21,ATTTTCTG,-0.0611
22,ATAACTGC,0.0306
23,AGCAAGTC,-0.151
24,GTAACACA,0.156
25,CGGACTGA,-0.154

row,Sequence,PBM E-score
1,CGCCCCTA,0.0687
2,AACAGTAG,-0.18
3,ACGACGTC,-0.18
4,CAAGAGAA,-0.00247
5,CGTACTGA,0.00053
6,GGACTAAA,0.0586
7,CGATCGGC,-0.112
8,AATCAGAG,0.0208
9,AAAGTCGC,0.175
10,ATGGGCAG,-0.125
11,CCAAACGA,0.0751
12,CCCGAAGA,-0.173
13,GCGAGAAC,-0.0902
14,TACGGCCA,-0.0117
15,GCATCCGA,-0.212
16,AGTCGACC,-0.0961
17,ACAGCACA,0.0162
18,GCCCCGCA,-0.123
19,CGGCTTTA,-0.0865
20,ATCTGTAA,0.0578
21,ACTTAGCT,-0.253
22,ACCTGTCT,-0.112
23,AACTAACG,0.166
24,GCCTAGGA,-0.246
25,CTGCTTGC,-0.145

row,Sequence,PBM E-score
1,CAATTGAG,0.0158
2,ACACCCCG,-0.0428
3,CAGAATGA,-0.0427
4,GAAATGAA,0.202
5,AACCATTG,0.271
6,ATCCTTGC,-0.141
7,AATTACCC,0.272
8,CCAAAGCA,0.109
9,CCAGAACC,0.304
10,CCCTAGCA,0.105
11,GCTCTGCC,-0.352
12,CTATAGAC,-0.0446
13,GTGTAGAA,-0.141
14,CGACGAAG,-0.229
15,AGCTTGGG,-0.06
16,GGTTTGCA,0.13
17,ACTACCTA,0.161
18,GGATTCCC,-0.244
19,CATTGAGA,0.0814
20,GGGTTAAC,0.403
21,AGCAAACA,0.0822
22,CCAGGTCA,0.121
23,CAGCGTCA,-0.176
24,AATCTGAT,-0.0529
25,TGGCTCAA,-0.142

row,Sequence,PBM E-score
1,CCTCTTAC,0.046
2,CGTTCAAA,0.0627
3,AGTTCCTG,-0.129
4,CATTGCGA,-0.0237
5,CCTGGACA,-0.0227
6,TGCAACCA,0.217
7,GTGGTGAA,-0.0676
8,CCTAGTAC,-0.0226
9,CCAGGCAA,-0.00138
10,CTGCACCA,-0.166
11,CTTTTGTA,0.162
12,AGCGAGAC,-0.195
13,CTCATGCC,-0.33
14,ACGACGGG,-0.024
15,CAGTAACC,0.44
16,CTTCTGGC,0.0319
17,AACTTTGT,0.135
18,GGTTATCA,0.445
19,ATTCCCCA,-0.128

# Reference: the supplement of paper PMC3334620
